Holding throughout (test): enrichment score (SH2-bound / input frequency) (ratio); bacterial display of known human phosphotyrosine sites (pTyr-Var adds point mutants) read by sequencing; higher = stronger binding; tyrosines were phosphorylated by kinases first
What all share (settings): peptide library: pTyr-Var

Assay [1] concerns the target SHP2 C-SH2 domain E139D.
Assay [2] addresses SHP2 C-SH2 domain wild-type.
In assay [3] the target is SHP2 N-SH2 domain L43F.
The target of assay [4] is SHP2 N-SH2 domain T42A.
Assay [5] addresses SHP2 N-SH2 domain T52S.
For assay [6], the target named is SHP2 N-SH2 domain wild-type.

The other results are listed elsewhere or left out. Rule as the data show it: active = 3.2 or more and inactive = the rest. Most of these values are background signal.
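Also: displayed peptides selected on beads carrying the immobilized SH2 domain, with library peptides lacking any tyrosine serving as negative controls.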

With IKNSGYISQFL [EIF2AK3_Y585_R588Q_YF], the enrichment score is inactive: 1.14 in assay [1]; inactive: 1.3 in assay [2]; inactive: 1.1 in assay [3]; inactive: 1.21 in assay [4]; inactive: 1.15 in assay [5]; inactive: 0.872 in assay [6].
As for AFSTVYKGLWI [EGFR_Y727_G724S], the enrichment score in assay [1] is inactive: 1.53; in assay [2], inactive: 1.48; in assay [3], inactive: 1.35; in assay [4], inactive: 3.16; in assay [5], inactive: 1.66; in assay [6], inactive: 1.16.
PPLMLYNPTTY [EGFR_Y270]: the enrichment score was inactive: 0.991 in assay [1]; inactive: 0.729 in assay [2]; inactive: 1.35 in assay [3]; inactive: 0.796 in assay [4]; inactive: 1.08 in assay [5]; inactive: 0.855 in assay [6].
Take IGRWVYPLTPE [EIF2B5_Y319_R315G]: the enrichment score is inactive: 1.67 in assay [1]; inactive: 1.46 in assay [2]; inactive: 1.64 in assay [3]; inactive: 1.57 in assay [4]; inactive: 1.62 in assay [5]; inactive: 1.53 in assay [6].
For GIADDYDKKKP [EIF1_Y54_L59P], the enrichment score in assay [1] is inactive: 0.668; in assay [2] it was inactive: 0.533; in assay [3] it was inactive: 0.472; in assay [4], inactive: 0.583; in assay [5] it was inactive: 0.656; in assay [6], inactive: 0.719.
Take ICRWVYPLTPE [EIF2B5_Y319_R315C]: the enrichment score in assay [1] was inactive: 1.21; in assay [2], inactive: 1.09; in assay [3], inactive: 1.04; in assay [4], inactive: 0.942; in assay [5], inactive: 1.16; in assay [6] it was inactive: 0.993.
For the molecule QLGLQYSQGLV [EIF2B4_Y214_R209Q], the enrichment score in assay [1] is inactive: 1.41; in assay [2] it was inactive: 1.05; in assay [3], inactive: 1.28; in assay [4] it was inactive: 1.18; in assay [5], inactive: 1.41; in assay [6], inactive: 1.57.
Regarding KGNMFYENSFA [EGFR_Y113_R108K_YF], the enrichment score in assay [1] is inactive: 1.53; in assay [2] it was inactive: 1.78; in assay [3], inactive: 1.94; in assay [4] it was inactive: 2.14; in assay [5] it was inactive: 1.53; in assay [6] it was inactive: 1.63.
With IRRWVYPLTPE [EIF2B5_Y319], the enrichment score in assay [1] was inactive: 0.701; in assay [2] it was inactive: 0.523; in assay [3], inactive: 0.653; in assay [4], inactive: 0.68; in assay [5], inactive: 0.535; in assay [6] it was inactive: 0.514.
For GSERDYTFDEL [EIF2S2_Y174_E177D_YF], the enrichment score was inactive: 0.561 in assay [1]; inactive: 0.586 in assay [2]; inactive: 0.665 in assay [3]; inactive: 0.426 in assay [4]; inactive: 0.533 in assay [5]; inactive: 0.697 in assay [6].
Take VDSLRYIYPKL [EIF2B3_Y92_A87V]: the enrichment score is inactive: 0.958 in assay [1]; inactive: 1.36 in assay [2]; active: 4.38 in assay [3]; active: 4.46 in assay [4]; active: 5.74 in assay [5]; inactive: 2.41 in assay [6].
SGADSYEMEED [EGFR_Y316_C311S]: the enrichment score is inactive: 0.388 in assay [1]; inactive: 0.457 in assay [2]; inactive: 0.344 in assay [3]; inactive: 0.46 in assay [4]; inactive: 0.35 in assay [5]; inactive: 0.497 in assay [6].
Turning to QTENKYDSVSG [EIF2AK3_Y565], the enrichment score in assay [1] was inactive: 0.395; in assay [2], inactive: 0.561; in assay [3] it was inactive: 0.277; in assay [4], inactive: 0.373; in assay [5] it was inactive: 0.626; in assay [6], inactive: 0.611.
As for ADSLRYIFPKL [EIF2B3_Y92_YF], the enrichment score in assay [1] was inactive: 1.29; in assay [2], inactive: 1.86; in assay [3], active: 8.37; in assay [4] it was active: 7.69; in assay [5], active: 10.4; in assay [6], active: 3.34.
As to INSLKYAYNVS [EIF2B5_Y583_I587V], the enrichment score in assay [1] was inactive: 0.758; in assay [2], inactive: 0.711; in assay [3], inactive: 0.708; in assay [4], inactive: 0.75; in assay [5] it was inactive: 0.829; in assay [6], inactive: 0.699.
On to QTENKYVSVSG [EIF2AK3_Y565_D566V], for which the enrichment score was inactive: 0.715 in assay [1]; inactive: 0.978 in assay [2]; inactive: 0.495 in assay [3]; inactive: 0.759 in assay [4]; inactive: 0.449 in assay [5]; inactive: 0.495 in assay [6].
With GSERDYTYEEL [EIF2S2_Y174], the enrichment score in assay [1] was inactive: 0.633; in assay [2] it was inactive: 0.635; in assay [3], inactive: 0.6; in assay [4] it was inactive: 0.536; in assay [5], inactive: 0.503; in assay [6], inactive: 0.552.
On to AEEKEYHAEEG [EGFR_Y869_G873E], for which the enrichment score was inactive: 0.409 in assay [1]; inactive: 0.631 in assay [2]; inactive: 0.553 in assay [3]; inactive: 0.479 in assay [4]; inactive: 0.402 in assay [5]; inactive: 0.676 in assay [6].
As for KLQKYYRKNPD [EHHADH_Y683_Q685K], the enrichment score in assay [1] is inactive: 0.836; in assay [2], inactive: 0.571; in assay [3] it was inactive: 0.586; in assay [4], inactive: 0.488; in assay [5], inactive: 0.731; in assay [6], inactive: 0.782.

These data come from the supplement of paper PMC10369915.
